Source: PubChem BioAssay AID1671194 (National Center for Advancing Translational Sciences (NCATS), 2021)
In all, about 140,000 compounds went through this assay and about 240 (0.17%) were called active. The shares of active, inactive and inconclusive entries below differ from those in the screen. Calls come from the whole dose curve; as a rule, active = well fitted inhibition curve with a large enough effect; inconclusive = small, poorly fitted or top-dose-only effect; inactive = no such curve, though single readings can be large or run the other way. Where the call is inconclusive, the potency comes from a doubtful curve fit.
Potency is the fitted concentration of half-maximal effect; tags give direction and shape of the fitted curve.

Assay: Primary qHTS assay for inhibitors of alpha-synuclein gene (SNCA) expression; note: nearly all actives have a fitted effect of over 45% in size
Conditions: HEK-293 SNCA-luciferase knock-in, luminescence, 24 h; series mostly up to 57.2 µM
For `O=C(c1cnccn1)N1CCC([C@@H]2CNC[C@H]2CO)CC1`, the Potency was inconclusive: 39.8 µM [inhibitor, single point]. In the case of `CC1=NS(=O)(=O)N(C)C=C1C(=O)OCc1nc(-c2ccc(C(F)(F)F)cc2)no1`, the Potency is reported as inconclusive: 39.8 µM [inhibitor, single point]. In the case of `CCOC(=O)c1c(S(=O)(=O)NCC(=O)Nc2ccc(Cl)c(C(F)(F)F)c2)c(C)n(C)c1C`, the Potency is reported as inconclusive: 39.8 µM [inhibitor, single point]. In the case of `CCc1ccccc1NC(=O)Cn1c(-c2ccccc2)nc(C)cc1=O`, the Potency is reported as inconclusive: 14.1 µM [inhibitor, partial curve, poor fit]. With `CC(=O)Nc1ccc(S(=O)(=O)N[C@H]2CO[C@H]3[C@@H]2OC[C@H]3OC(=O)Nc2cccc3ccccc23)cc1` the Potency was inconclusive: 11.2 µM [inhibitor, single point]. With `COC(=O)c1ccc(NC(=O)c2cnc(-c3ccc(C)cc3)nc2-c2ccncc2)cc1` the Potency was “inactive”. With `COc1ccc(-c2nc3cnc(OCc4ccccc4)nc3n(CCC#N)c2=O)cc1` the Potency was inconclusive: 39.8 µM [inhibitor, single point]. With `CC1(COc2ccc(-c3nc(COc4ccccc4)no3)cn2)CCCNC1` (stereo not drawn) the Potency was “inactive”. With `NC(=O)C(=O)N1CCN2C(=O)c3cc(-c4ccc(Cl)cc4)ccc3NC(=O)[C@@H]2C1` the Potency was inconclusive: 35.5 µM [inhibitor, single point]. In the case of `CCC(O)c1cc2n(n1)CCN(C(=O)CN1CCOc3ccccc3C1)C2` (stereo not drawn), the Potency is reported as inconclusive: 3.16 µM [inhibitor, partial curve, poor fit]. In the case of `COc1ccc(-c2[nH]ncc2CNC(=O)[C@H]2CCC[C@@H](O)C2)cc1`, the Potency is reported as inconclusive: 39.8 µM [inhibitor, single point]. In the case of `Cc1cc(N2CCC3(CCCN(CC4CCC4)C3=O)C2)nc2ccccc12` (stereo not drawn), the Potency is reported as inconclusive: 39.8 µM [inhibitor, single point]. For `Cc1ccc(-n2ncc(C(=O)NCCc3ccsc3)c2C2CCN(C(=O)OC(C)(C)C)CC2)c(C)c1`, the Potency was inconclusive: 39.8 µM [inhibitor, single point]. For `CNc1nccc(N2CCC(CC(=O)NCCCN3CCC(C)CC3)CC2)n1`, the Potency was “inactive”. With `O=C(NCCc1ccccc1)C1CCCCN1Cc1ccc(-c2cccs2)cc1` (stereo not drawn) the Potency was inconclusive: 28.2 µM [inhibitor, partial curve, poor fit]. With `CCc1ccc(C2N=C(N)Nc3nc4ccccc4n32)cc1` (stereo not drawn) the Potency was inconclusive: 15.8 µM [inhibitor, partial curve, poor fit]. With `COC[C@@H]1CN(C(=O)Cc2cccc(F)c2)C[C@H]1c1ccncc1` the Potency was inconclusive: 0.708 µM [inhibitor, full curve, poor fit]. With `CCc1ccc(S(=O)(=O)NCc2cccn2Cc2cccc(C)c2)cc1` the Potency was inconclusive: 12.6 µM [inhibitor, partial curve, poor fit]. With `Cc1[nH]nc(CCC(=O)N2CCC3(CCCN(CC(C)(C)C)C3)C2)c1C` (stereo not drawn) the Potency was “inactive”. With `O=C1c2c(nc(COc3cccc(Cl)c3)n2Cc2ccccc2)NCCN1CCOc1ccccc1` the Potency was inconclusive: 25.1 µM [inhibitor, single point]. In the case of `COCCNC(=O)c1ccc(OC)cc1OC1CCN(Cc2cccc3cccnc23)CC1`, the Potency is reported as inconclusive: 8.91 µM [inhibitor, single point]. For `COC(=O)c1ccc(NC(=O)CC2C(=O)N(c3cccc(F)c3)C(=O)N2CC(C)C)cc1` (stereo not drawn), the Potency was inconclusive: 7.08 µM [inhibitor, single point]. In the case of `COc1ccc(NC(=O)Cn2nnnc2-c2ccccc2F)c(C)c1`, the Potency is reported as inconclusive: 25.1 µM [inhibitor, single point]. With `COCCNC(=O)c1cc(-c2ccc(OC)cc2)nc2c1c(C1CCCN1)nn2C` (stereo not drawn) the Potency was “inactive”. For `CCCNC(=O)C1CCC(Cn2c(=O)c3sccc3n(CC(=O)N(CC)CC)c2=O)CC1` (stereo not drawn), the Potency was inconclusive: 22.4 µM [inhibitor, single point]. In the case of `Cc1ccc(C2Cn3nnc(C(=O)N4CCC(C(=O)NCc5ccncc5)CC4)c3CO2)cc1` (stereo not drawn), the Potency is reported as “inactive”. For `O=C(Cc1ccccc1)N1CCC2(CC1)CN(c1ccncn1)CC2CO` (stereo not drawn), the Potency was inconclusive: 25.1 µM [inhibitor, single point]. With `O=C(c1cccc(-c2ccccn2)c1)N1CCN(C(=O)C2CC2)CC1` the Potency was inconclusive: 31.6 µM [inhibitor, single point]. For `COC[C@@H]1CN(C(=O)c2cccc3[nH]ccc23)C[C@H]1c1nc(C)no1`, the Potency was “inactive”. In the case of `C[S+](=O)([O-])N1CC2(CCN(C(=O)CCC(=O)O)C2)Cc2ccccc21` (stereo not drawn), the Potency is reported as “inactive”. In the case of `CCOc1cc(CNCCSc2nnnn2C)ccc1OCc1ccc(Cl)cc1Cl`, the Potency is reported as inconclusive: 20 µM [inhibitor, single point]. In the case of `CN1CCOc2c(C(=O)NCc3cccnc3)cc(-c3ccccc3O)cc21`, the Potency is reported as “inactive”. With `CNc1ccc(-c2nc(-c3ccccn3)no2)cc1[N+](=O)[O-]` the Potency was inconclusive: 20 µM [inhibitor, single point]. In the case of `CC(C)n1cc(CN2CCC3(CC2)CC(C(=O)N2CCOCC2)N(C)C3)c2ccccc21` (stereo not drawn), the Potency is reported as inconclusive: 12.6 µM [inhibitor, partial curve, poor fit]. For `O=C(NCCc1ccc(Cl)cc1)c1ccc2nnc(-c3cc(C(F)(F)F)cc(C(F)(F)F)c3)n2c1`, the Potency was inconclusive: 2.82 µM [inhibitor, full curve]. In the case of `COc1ccccc1-c1cc(C(F)(F)F)nc(S(=O)(=O)CCCC(=O)Nc2ccccc2F)n1`, the Potency is reported as “inactive”. In the case of `CC1=C[C@@H](CN2CCN(c3ccccn3)CC2)[C@H](C(C)C)C[C@H]1Cc1nnc(-c2ccc(C)cc2)o1`, the Potency is reported as inconclusive: 0.708 µM [inhibitor, single point]. In the case of `CS(=O)(=O)N1CCc2ccc(C(=O)NCCN3CCc4ccccc4C3)cc21`, the Potency is reported as “inactive”. In the case of `CCOC(=O)C1CCC(CN(Cc2ccc(OC)cc2)S(=O)(=O)c2ccc(C)cc2)CC1` (stereo not drawn), the Potency is reported as inconclusive: 10 µM [inhibitor, partial curve, poor fit]. In the case of `O=C(Nc1ccc2c(c1)OCCO2)C1CN(S(=O)(=O)C2CC2)CC12CCCCC2` (stereo not drawn), the Potency is reported as inconclusive: 39.8 µM [inhibitor, partial curve, poor fit]. With `O=C(Nc1cccc(C(F)(F)F)c1)c1cnc2c(c1)N(Cc1ccccc1)CCC2` the Potency was “inactive”. In the case of `COc1ccc(C[C@H](NC(=O)[C@@]2(O)C[C@@H](O)[C@H](O)[C@@H](NC(=O)CS(=O)(=O)c3ccccc3)C2)C(N)=O)cc1`, the Potency is reported as inconclusive: 8.91 µM [inhibitor, partial curve, poor fit]. In the case of `COc1cc2c(C(=O)N3CCN(c4cccc(Cl)c4)CC3)cn(C)c(=O)c2cc1OC`, the Potency is reported as inconclusive: 15.8 µM [inhibitor, partial curve, poor fit]. With `O=C(NCCc1c[nH]c2ccc(Cl)cc12)C1CC(=O)N(c2n[nH]c3ccccc23)C1` (stereo not drawn) the Potency was inconclusive: 31.6 µM [inhibitor, single point]. With `CC(C)NC(=O)c1nc(-c2cccnc2)c2cnccn12` the Potency was “inactive”. For `CN(C)c1nccnc1OC1CCN(C(=O)c2ccn[nH]2)C1` (stereo not drawn), the Potency was “inactive”. With `C1CNCC(c2nc(CCOCC3CC3)no2)C1` (stereo not drawn) the Potency was “inactive”. For `COc1ccc(-c2[nH]nc3ncc(-c4cn[nH]c4)nc23)c(C)c1`, the Potency was “inactive”. In the case of `O=C(c1ccc(F)cc1)N1CCC(Cc2nc(C3CCOCC3)no2)CC1`, the Potency is reported as inconclusive: 7.08 µM [inhibitor, single point]. For `O=C(CCCc1c[nH]c2ccccc12)NC1CCc2n[nH]c(=O)n2CC1` (stereo not drawn), the Potency was inconclusive: 8.91 µM [inhibitor, single point]. In the case of `COc1ccc(-c2nc3ccccc3n2Cc2ccc(C(C)C)cc2)cc1`, the Potency is reported as inconclusive: 39.8 µM [inhibitor, single point]. In the case of `O=C(Nc1ccccc1F)C1CCCCN1Cc1ccc(-c2cccs2)cc1` (stereo not drawn), the Potency is reported as inconclusive: 39.8 µM [inhibitor, single point]. With `COc1ccc(N2CCN(c3cc(C4CC(N)C4)nc(N)n3)CC2(C)C)cc1` (stereo not drawn) the Potency was “inactive”. In the case of `Cn1cnc([S+](=O)([O-])N2CCCC(c3nnc4n3C(C(=O)O)CC4)C2)c1` (stereo not drawn), the Potency is reported as inconclusive: 35.5 µM [inhibitor, single point]. In the case of `O=C(c1cccc(C(F)(F)F)c1)N1CC2CC(C1)[C@H]1CCCC(=O)N1C2` (stereo partly drawn), the Potency is reported as inconclusive: 11.2 µM [inhibitor, partial curve, poor fit]. In the case of `CN(C)CCNC(=O)c1nc2nc(-c3ccccc3)c(-c3ccc(Cl)cc3)cc2n1C`, the Potency is reported as inconclusive: 56.2 µM [inhibitor, single point]. For `Cc1ccc(C#N)c(N2CC[C@@]3(O)CCN(S(=O)(=O)N(C)C)C[C@H]3C2)n1`, the Potency was “inactive”. In the case of `COc1ccc(C(=O)N2CCC(c3ncc(C)n3C(C)C)C2)cc1` (stereo not drawn), the Potency is reported as inconclusive: 1.26 µM [inhibitor, full curve, poor fit]. In the case of `CC(C)c1cc(N2C[C@H](O)[C@@H](N3CCCCC3)C2)n2nccc2n1`, the Potency is reported as “inactive”. In the case of `CCOc1ccc(-c2cc3c(=O)n(CC(=O)Nc4cc(F)ccc4C)ccn3n2)cc1`, the Potency is reported as inconclusive: 39.8 µM [inhibitor, single point]. For `Cc1ccc(NC(=O)CN2C(=O)COc3ccc(S(=O)(=O)NC4CCCC4)cc32)cc1Cl`, the Potency was inconclusive: 17.8 µM [inhibitor, single point]. For `CCc1nc2c(c(-c3ccc(Cl)cc3)n1)CN(Cc1ccc(OC(F)(F)F)cc1)CC2`, the Potency was inconclusive: 39.8 µM [inhibitor, single point]. With `Cc1csc2nc(COc3ccc(NC(=O)COc4ccccc4)cc3)cc(=O)n12` the Potency was inconclusive: 2 µM [inhibitor, single point].
